According to the supplement of paper PMC8728848:
The list shows a part of the results.

Legend:
Experiment in all cases: glycan array binding signal (z-score within array); higher = stronger binding
Conditions in all cases: glycan notation: IUPAC condensed, linker removed
[1] = target: Gal(b1-4)GlcNAc(b1-2)Man(a1-3)[Gal(b1-4)GlcNAc(b1-2)Man(a1-6)]Man(b1-4)GlcNAc(b1-4)GlcNAc
Outline: (§1)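 Columns mapping to the same glycan were averaged after glycan names were converted to IUPAC-condensed notation. The data come from 3228 arrays in the Consortium for Functional Glycomics database, limited to those with an available protein sequence. Binding is reported as a within-array Z-score averaged across arrays of one protein sequence and across linkers.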

[2] = target: Gal(b1-4)GlcNAc(b1-2)Man(a1-3)[Gal(b1-4)GlcNAc(b1-2)Man(a1-6)]Man(b1-4)GlcNAc(b1-4)[Fuc(a1-6)]GlcNAc
Outline: as §1

[3] = target: Gal(b1-4)GlcNAc(b1-2)Man(a1-3)[Gal(b1-4)GlcNAc(b1-2)Man(a1-6)][Gal(b1-4)GlcNAc(b1-4)]Man(b1-4)GlcNAc(b1-4)[Fuc(a1-6)]GlcNAc
Outline: as §1

[4] = target: Gal(b1-4)GlcNAc(b1-2)Man(a1-3)[Gal(b1-4)GlcNAc(b1-2)Man(a1-6)][GlcNAc(b1-4)]Man(b1-4)GlcNAc(b1-4)[Fuc(a1-6)]GlcNAc
Outline: as §1

[5] = target: Gal(b1-4)GlcNAc(b1-2)Man(a1-3)[GlcNAc(b1-2)Man(a1-6)]Man(b1-4)GlcNAc(b1-4)GlcNAc
Outline: as §1

[6] = target: Gal(b1-4)GlcNAc(b1-2)Man(a1-3)[GlcNAc(b1-4)][Gal(b1-4)GlcNAc(b1-2)Man(a1-6)]Man(b1-4)GlcNAc(b1-4)GlcNAc
Outline: as §1

[7] = target: Gal(b1-4)GlcNAc(b1-2)Man(a1-3)[Man(a1-6)]Man(b1-4)GlcNAc(b1-4)GlcNAc
Outline: as §1

[8] = target: Gal(b1-4)GlcNAc(b1-2)Man(a1-6)Man(b1-4)GlcNAc(b1-4)GlcNAc
Outline: as §1

[9] = target: Gal(b1-4)GlcNAc(b1-2)Man(a1-6)[GlcNAc(b1-2)Man(a1-3)]Man(b1-4)GlcNAc(b1-4)GlcNAc
Outline: as §1

[10] = target: Gal(b1-4)GlcNAc(b1-2)Man(a1-6)[Man(a1-3)]Man(b1-4)GlcNAc(b1-4)GlcNAc
Outline: as §1

[11] = target: Gal(b1-4)GlcNAc(b1-2)[Gal(b1-4)GlcNAc(b1-4)]Man(a1-3)[Gal(b1-4)GlcNAc(b1-2)Man(a1-6)]Man(b1-4)GlcNAc(b1-4)GlcNAc
Outline: as §1

[12] = target: Gal(b1-4)GlcNAc(b1-2)[Gal(b1-4)GlcNAc(b1-4)]Man(a1-3)[Gal(b1-4)GlcNAc(b1-2)[Gal(b1-4)GlcNAc(b1-6)]Man(a1-6)]Man(b1-4)GlcNAc(b1-4)GlcNAc
Outline: as §1

[13] = target: Gal(b1-4)GlcNAc(b1-2)[Gal(b1-4)GlcNAc(b1-4)]Man(a1-3)[GlcNAc(b1-4)][Gal(b1-4)GlcNAc(b1-2)Man(a1-6)]Man(b1-4)GlcNAc(b1-4)GlcNAc
Outline: as §1

[14] = target: Gal(b1-4)GlcNAc(b1-2)[Gal(b1-4)GlcNAc(b1-4)]Man(a1-3)[GlcNAc(b1-4)][Gal(b1-4)GlcNAc(b1-2)[Gal(b1-4)GlcNAc(b1-6)]Man(a1-6)]Man(b1-4)GlcNAc(b1-4)GlcNAc
Outline: as §1

[15] = target: Gal(b1-4)GlcNAc(b1-2)[Gal(b1-4)GlcNAc(b1-6)]Man(a1-6)[Gal(b1-4)GlcNAc(b1-2)Man(a1-3)]Man(b1-4)GlcNAc(b1-4)GlcNAc
Outline: as §1

[16] = target: Gal(b1-4)GlcNAc(b1-2)[Gal(b1-4)GlcNAc(b1-6)]Man(a1-6)[Gal(b1-4)GlcNAc(b1-2)Man(a1-3)]Man(b1-4)GlcNAc(b1-4)[Fuc(a1-6)]GlcNAc
Outline: as §1

[17] = target: Gal(b1-4)GlcNAc(b1-2)[Gal(b1-4)GlcNAc(b1-6)]Man(a1-6)[GlcNAc(b1-4)][Gal(b1-4)GlcNAc(b1-2)Man(a1-3)]Man(b1-4)GlcNAc(b1-4)GlcNAc
Outline: as §1

[18] = target: Gal(b1-4)GlcNAc(b1-2)[Gal(b1-4)GlcNAc(b1-6)]Man(a1-6)[GlcNAc(b1-4)][Gal(b1-4)GlcNAc(b1-2)[Gal(b1-4)GlcNAc(b1-4)]Man(a1-3)]Man(b1-4)GlcNAc(b1-4)[Fuc(a1-6)]GlcNAc
Outline: as §1

[19] = target: Gal(b1-4)GlcNAc(b1-3)Gal(b1-3)GalNAc
Outline: as §1

B1: MGL (Homo sapiens), Q8IUN9 (protein)
chain: MTRTYENFQYLENKVKVQGFKNGPLPLQSLLQRLCSGPCHLLLSLGLGLLLLVIICVVGFQNSKFQRDLVTLRTDFSNFTSNTVAEIQALTSQGSSLEETIASLKAEVEGFKQERQAGVSELQEHTTQKAHLGHCPHCPSVCVPVHSEMLLRVQQLVQDLKKLTCQVATLNNNASTEGTCCPVNWVEHQDSCYWFSHSGMSWAEAEKYCQLKNAHLVVINSREEQNFVQKYLGSAYTWMGLSDPEGAWKWVDGTDYATGFQNWKPGQPDDWQGHGLGGGEDCAHFHPDGRWNDDVCQRPYHWVCEAGLGQTSQESH
glycan array binding signal (z-score) [1]: -0.254
glycan array binding signal (z-score) [2]: -0.246
glycan array binding signal (z-score) [3]: -0.26
glycan array binding signal (z-score) [4]: -0.258
glycan array binding signal (z-score) [5]: -0.252
glycan array binding signal (z-score) [6]: -0.25
glycan array binding signal (z-score) [7]: -0.232
glycan array binding signal (z-score) [8]: -0.247
glycan array binding signal (z-score) [9]: -0.229
glycan array binding signal (z-score) [10]: -0.24
glycan array binding signal (z-score) [11]: -0.244
glycan array binding signal (z-score) [12]: -0.245
glycan array binding signal (z-score) [13]: -0.245
glycan array binding signal (z-score) [14]: -0.265
glycan array binding signal (z-score) [15]: -0.244
glycan array binding signal (z-score) [16]: -0.238
glycan array binding signal (z-score) [17]: -0.244
glycan array binding signal (z-score) [18]: -0.244
glycan array binding signal (z-score) [19]: -0.27
